# Test results published in the RNAGym collection of RNA variant scans (doi:10.1073/pnas.2313332121).
# This sample is rich in variants without activity.
# B1: TPR 5TU (parent)
# chain: GGAUCUUCUCGAUCUAACAAAAAAGACAAAUCUGCCACAAAGCUUGAGAGCAUCUUCGGAUGCAGAGGCGGCAGCCUUCGGUGGCGCGAUAGCGCCAACGUUCUCAACUAUGACACGCAAAACGCGUGCUCCGUUGAAUGGAGUUUAUCAUG
# Variants of: B1
# Experiment: polymerase ribozyme fitness, log enrichment relative to wild type (log ratio); higher = more active; in vitro selection for triplet polymerase activity
# Summary of the method: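 Each subunit of a heterodimeric triplet polymerase ribozyme was mutagenized into a library by PCR, transcribed, and subjected to one round of in vitro selection, run in triplicate. Libraries were annealed with a biotinylated primer, the partner subunit and triplets, incubated frozen at −7 °C, and extended constructs were gel-excised, captured on streptavidin beads and recovered by RT-PCR. Input and output libraries were sequenced on Illumina, keeping genotypes with ≥10 input reads and ≥1 read per output. Fitness is log base 2 of genotype enrichment divided by wild-type enrichment, from inverse-variance-weighted replicate averages.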
row,Variant,polymerase ribozyme fitness (log ratio)
1,GGAUCUUCUCGCUCUAACAAAAAAGACAUAUCUGCCACAAAGCUUGAGAGCAUCUUCGGAUGCAGGGGCGGCAGCCUUCGGUGGCGCGAUAGCGCCAACGGUCUCAACUAUGACACGCAAAACGCGUGCUGCGUUGAAUGGAGUUUAUCAUG [A12C A29U A66G U101G C131G],≤ -4.2
2,GGAUCUUCUCGCUCUAACAAAAAAGACAUAUCUGCCACAAAGCUUGAGAGCAUCUUCGGAUGCAGAGCCGGCCGCCUUCUGUGCCGCGAUAGCGCCAACGUUCUCAACUAUGACACGCAAAACGCGUGCUCCGUUGAAUGGAGUUUAUCAUG [A12C A29U G68C A73C G80U G84C],≤ -4.2
3,GGAUCUUCUCGCUCUAACAAAAAAGACAUAUCUGCCACAAAGCUUGAGAGCAUCUUCGGAUGCAGAGCCGGCCGCCUUCUGUGCCGCGAUAGCGCCAACGUUCUCAACUAUGACACGCAAGACGCGUGCUCCGUUGAAUGGAGUUUAUCAUG [A12C A29U G68C A73C G80U G84C A121G],≤ -4.2
4,GGAUCUUCUCGCUCUAACAAAAAAGACAAUUCUGCCACAAAGCUUGAGAGCAUCUUCGGAUGCAGAGGCGGCAGCCUUCGGUGGCACGAUAGCGCCAAAGUUCUCAACUAUGACACGCAAAACGCGUGCUCCGUUGAAUGGAGUUUAUCAUG [A12C A30U G86A C99A],≤ -4.2
5,GGAUCUUCUCGCUCUAACAAAAAAGACAAAUCUGCCCCAAAGCUUGAGAGCAUCUUCGGAUGCAGAGGCGGAAGCCUUCGGUGGCGCGAGAGCGCCAACGAUUUCAACUAUGACACGCAAAACGCGUGCUCCGUUGAGUGGUGUUUAUCAUG [A12C A37C C72A U90G U101A C103U A138G A142U],≤ -4.2
6,GGAUCUUCUCGCUCUAACAAAAAAGACAAAUCUGCCACAACGCUUGAGAGCAUUUUCGGAUGCAGAGGCGGCAGCCUUCGGUGGCGCGAUAGCUCCAACGUUCUCAACUAUGACACGCAAGACGCGUGCUCCGUUGAAUCGAGUUUAUCAUG [A12C A41C C54U G94U A121G G140C],≤ -4.2
7,GGAUCUUCUCGCUCUAACAAAAAAGACAAAUCUGCCACAAAGCUUGAGAGCCUCUUCGGAUGCAGAGGCGGCAGCCUUCGGUAGCGCGAUUGCGCCAACGUUCUCAACUAUGACACGCAAAACGCGUGCUCCGUUGAAUGGAGUUUAUCAUG [A12C A52C G83A A91U],≤ -4.2
8,GGAUCUUCUCGCUCUAACAAAAAAGACAAAUCUGCCACAAAGCUUGAGAGCCUCUUCGGAUGCAGAGGCGGCAGCCUCCGGUGGCGCGAUAGCGCCAACGUUCUCAACUAUGAUACGCAAAACGCGUGCUUCGUUGAAUGGAGUUUAACAUG [A12C A52C U78C C114U C131U U148A],≤ -4.2
9,GGAUCUUCUCGCUCUAACAAAAAAGACAAAUCUGCCACAAAGCUUGAGAGCGUGUUCGGAUGCAGAGGCGGCAGCGUUCGGUGGCGCGAUAGCUCCAACGUUCUCAACUAUGACACGCAAAACGCGUGCUCCGUUGAAUGGAGUUUAUCAUG [A12C A52G C54G C76G G94U],≤ -4.2
10,GGAUCUUCUCGCUCUAACAAAAAAGACAAAUCUGCCACAAAGCUUGAGAGCAUCUUCGGUUGCAGAGGCGGCAGGCUUCGGUGGCGCCAUGGCGCCAACGUUCUCAACGAUGACACGCAAAACGCGUGCUCCGUUGAAUGGAGUUUAUCAUG [A12C A60U C75G G88C A91G U109G],≤ -4.2
11,GGAUCUUCUCGCUCUAACAAAAAAGACAAAUCUGCCACAAAGCUUGAGAGCAUCUUCGGAUGCAGAGGCGGCAGCCUUCGGUGGCGCGAUAGCGCCAGCGUUCUCAACUAUGACACGCAAAACGCGUGCUCCGUUGAAUGGAGUUUAUCAUG [A12C A98G],-0.18
12,GGAUCUUCUCGCUCUAACAAAAAAGACAAAUCUGCCACAAAGCUUGAGAGCAUCUUCGGAUGCAGAGGCGGCAGCCUUCGGUGGCGCGAUAGCGCCAUCGUUCUCAACUAUGACACGCAAAACGCGUUCUCCGUUGAAUCGAGUUUAUCAUG [A12C A98U G128U G140C],≤ -4.2
13,GGAUCUUCUCGCUGUAACAAAAAAGUCAAAUCUGCCACAAAGCUUGAGCGCAUCUUCGAAUGCAGAGGCGGCAGCCUUCGGUGGCGCGAUAGCGCCAACGUUCUCAACUAUGACACGCAAAACGCGUGCUACGUUGAAUGGAGUUUAUCAUG [A12C C14G A26U A49C G59A C131A],≤ -4.2
14,GGAUCUUCUCGCUCUAACAAAAAAGACAAAUCUGACACAAAGCUUGAGAGCAUCUUCGGAUGCAGAGGCGGCAGCCUUCGGUGGGGCGAUAGCGCCAACGUUGUCAACUAUGACACGGAAAACGCGUGCUCCGUUGAAUGCAGUUUAUCAUG [A12C C35A C85G C103G C118G G141C],≤ -4.2
15,GGAUCUUCUCGCUCUAACAAAAAAGACAAAUCUGUCACAAAGCUUGAGAGCAUCUUCGGAUGCAGAGGCGGCAGCCUUCGGUGGCACGAUAGUGCCAACGUUCUCAACUAUGACACGCAAAACGCGUGCUCCGUUGAAUGGAGUUUAUCAUG [A12C C35U G86A C93U],-1.43
16,GGAUCUUCUCGCUCUAACAAAAAAGACAAAUCUGCCAAAAAGCUUGAGAGCAUCUUCGGAUGCAGAGGCGGCAGCCUUCGGUGGCGCGAUAGUGCCAACGUUCUCAACUAUGACACGCAAAACGCGUGCUCCGUUGAAUGGAGUUUAUCAUG [A12C C38A C93U],-1.62
17,GGAUCUUCUCGCUCUAACAAAAAAGACAAAUCUGCCAAAAAGCUUGAGAGCAUCGUCGGAUGCAGAGGCGGCUGCCUUCGGUGGCGCGAUAGCGCCAACGUUCUCAGCUAUGACACGCAAAACGCGUGCUCCGCUGAAUGGAGUUUAUCAUG [A12C C38A U55G A73U A107G U134C],≤ -4.2
18,GGAUCUUCUCGCUCUAACAAAAAAGACAAAUCUGCCAGAAAGCUUGAGAGCAUCUUCGGAUGCAGAGGCGGCAGCCUUCGGUGGAGCGAUAGCGCCAACGUUCUCAACUAUGACAAGCAGAACGCGUGCUCCGUUGAAUGGAGUUUAUCAUG [A12C C38G C85A C116A A120G],-1.83
19,GGAUCUUCUCGCUCUAACAAAAAAGACAAAUCUGCCAUAAAGCUUGAGAGCAUUUUCGGAUGCAGAGGCGGCAGCUGUCGGUGACGCGAUAGCGCCAACGUUCUCAACUAUGACACGCAAAACGCGAGCUCCGUUGAUUGGAGUUUAUCAUG [A12C C38U C54U C76U U77G G84A U127A A138U],≤ -4.2
